The supplement of paper PMC3334620
Whole data set: some 33,000 sequences, median “E-score (-0.5 to 0.5)” near -0.035, cut for the highest 2% near 0.34. The list shows a part of the results.

biological target: T1, Mot3 (UniProt P54785); assay: PBM E-score (8-mer binding enrichment) (E-score (-0.5 to 0.5)); higher = stronger / more preferred TF binding; most listed sequences are background and not binding sites; settings: protein concentration: 200 nM; construct: GST-full length
T1 sequence: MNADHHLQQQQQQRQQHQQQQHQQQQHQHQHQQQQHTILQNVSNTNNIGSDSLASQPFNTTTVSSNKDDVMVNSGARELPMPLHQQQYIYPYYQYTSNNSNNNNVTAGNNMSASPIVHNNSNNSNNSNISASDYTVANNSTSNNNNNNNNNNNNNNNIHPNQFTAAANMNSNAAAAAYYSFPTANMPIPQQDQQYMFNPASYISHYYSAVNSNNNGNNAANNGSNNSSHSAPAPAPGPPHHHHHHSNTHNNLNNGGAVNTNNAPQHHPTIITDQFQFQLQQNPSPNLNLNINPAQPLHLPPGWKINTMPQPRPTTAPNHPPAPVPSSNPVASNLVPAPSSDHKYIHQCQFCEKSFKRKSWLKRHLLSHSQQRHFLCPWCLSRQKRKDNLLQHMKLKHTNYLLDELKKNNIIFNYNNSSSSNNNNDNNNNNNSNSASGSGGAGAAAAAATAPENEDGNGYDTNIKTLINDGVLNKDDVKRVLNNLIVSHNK
Procedure: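 Universal 'all 10-mer' protein binding microarrays (Agilent AMADID 015681) probed with GST-tagged S. cerevisiae TFs (full-length or DBD) made by in vitro transcription/translation (PURExpress), about 100-200 nM. Bound TF was detected with fluorescent anti-GST. Each ungapped 8-mer (which stands for itself and its reverse complement) is scored by the PBM enrichment score (E-score), a modified Wilcoxon-Mann-Whitney statistic from -0.5 to +0.5, computed with the Universal PBM Analysis Suite. Scale: above 0.35 generally sequence-specific binding.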

| Sequence | PBM E-score |
| --- | --- |
| AGTAGTGA | -0.0837 |
| CACTCGAA | 0.0251 |
| AAGAGTTG | 0.0434 |
| AGTATGCA | -0.0269 |
| GCGGACAA | -0.139 |
| TAGTTACA | 0.314 |
| AAGTGAAT | 0.0211 |
| CAGTCTTC | -0.243 |
| CAGAGGCG | -0.149 |
| AGAATGAC | -0.0267 |
| ACTCGCTG | -0.176 |
| GTTCCAAC | -0.0662 |
| ACCTCAGG | -0.0976 |
| ACCAATCG | -0.166 |
| CACCCGGC | -0.19 |
| GTCCGGAC | 0.0843 |
| CTCGCCAG | -0.132 |
| AAAGACTA | -0.0333 |
| CGTCCTAG | 0.0293 |
| TATTGTGA | 0.124 |
| AGCTTCGC | -0.106 |
| CGTAGATC | 0.0629 |

| Sequence | PBM E-score |
| --- | --- |
| ACTAGACA | 0.0926 |
| CAGCTATC | -0.259 |
| CCCCATCA | -0.207 |
| ATCTAATA | 0.148 |
| ATGTATGC | 0.271 |
| CCGTACGC | -0.235 |
| ATCCCCAT | 0.00841 |
| CAAGGGAG | -0.123 |
| AAGCCGGT | -0.12 |
| GCGGGAGC | -0.273 |
| GGCCAGCA | -0.161 |
| CAAAGGTG | 0.0423 |
| GCTGTGCA | -0.0637 |
| CCCCCCGC | -0.341 |
| GGCAGGCC | -0.165 |
| GCGACCCA | -0.269 |
| CTTTCCTC | 0.0989 |
| GGAGACAA | -0.0183 |
| CCCAATCC | -0.106 |
| CCATCAGC | -0.189 |
| AATCCTAT | -0.144 |
| CCAGGTTC | 0.0333 |

| Sequence | PBM E-score |
| --- | --- |
| ACGTTCCG | -0.144 |
| CCTGCCAG | 0.0836 |
| GTTCCGGA | -0.201 |
| ATGATCCG | -0.114 |
| AGTGGTAC | -0.108 |
| AGAGGATA | -0.0833 |
| AGAATAGG | 0.0659 |
| AAAACGAC | -0.00705 |
| ATGCAGCG | -0.243 |
| CAAACTGG | -0.208 |
| GAGGTCCA | -0.194 |
| CTTGGGTC | -0.311 |
| TTGGAAAA | 0.0808 |
| AGGCAATA | 0.472 |
| CACCCTCG | -0.108 |
| AACGAATA | 0.0301 |
| GCAGTAGC | -0.188 |
| ACGGGGAT | -0.188 |
| AGGCGCCT | 0.302 |
| ATGAGAAG | 0.0514 |
| AGCTGTTG | 0.0817 |
| TCGAGTAA | 0.172 |

| Sequence | PBM E-score |
| --- | --- |
| ACGCGAGC | -0.0425 |
| AGTACGAC | 0.0306 |
| AGGAGAAG | -0.16 |
| AATAATAT | 0.2 |
| CTTGTCAA | 0.256 |
| AGCCATTC | -0.0521 |
| CCACATGG | -0.192 |
| CACGTGTA | 0.383 |
| GACATCTA | -0.0872 |
| AAGTCTGA | -0.133 |
| CGAGGCCG | -0.349 |
| CACAGAAC | 0.0199 |
| GTGTCTCA | -0.0996 |
| CAGCCATA | -0.0279 |
| CTAGGGAC | -0.333 |
| GTATCGTA | 0.197 |
| GCCTACGA | 0.219 |
| ACCACGCC | -0.217 |
| TCGACCGA | -0.143 |
| CAACCCCC | 0.0528 |
